Test results reported in PMC9107170.
Results are given in words; binding and its absence hold for the method and conditions named. In cells and extracts the contact can be indirect. Some entries that bind do so weakly or less than the wild type.

Protein sequences, listed by entry. Tags and fused reporters are not part of them. Lines headed by an entry give the natural chain unless they say otherwise; changes in a name come on top.
UniProt Q9UBF6: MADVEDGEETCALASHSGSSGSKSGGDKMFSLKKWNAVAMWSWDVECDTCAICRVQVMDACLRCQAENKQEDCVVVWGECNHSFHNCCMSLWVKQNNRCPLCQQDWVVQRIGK
UniProt O15524: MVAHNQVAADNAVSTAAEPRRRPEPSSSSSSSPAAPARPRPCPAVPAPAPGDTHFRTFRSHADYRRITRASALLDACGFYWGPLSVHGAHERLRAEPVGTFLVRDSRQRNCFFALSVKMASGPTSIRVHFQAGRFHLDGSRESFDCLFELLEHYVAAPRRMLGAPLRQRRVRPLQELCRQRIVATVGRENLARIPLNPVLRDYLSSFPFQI
UniProt O75925: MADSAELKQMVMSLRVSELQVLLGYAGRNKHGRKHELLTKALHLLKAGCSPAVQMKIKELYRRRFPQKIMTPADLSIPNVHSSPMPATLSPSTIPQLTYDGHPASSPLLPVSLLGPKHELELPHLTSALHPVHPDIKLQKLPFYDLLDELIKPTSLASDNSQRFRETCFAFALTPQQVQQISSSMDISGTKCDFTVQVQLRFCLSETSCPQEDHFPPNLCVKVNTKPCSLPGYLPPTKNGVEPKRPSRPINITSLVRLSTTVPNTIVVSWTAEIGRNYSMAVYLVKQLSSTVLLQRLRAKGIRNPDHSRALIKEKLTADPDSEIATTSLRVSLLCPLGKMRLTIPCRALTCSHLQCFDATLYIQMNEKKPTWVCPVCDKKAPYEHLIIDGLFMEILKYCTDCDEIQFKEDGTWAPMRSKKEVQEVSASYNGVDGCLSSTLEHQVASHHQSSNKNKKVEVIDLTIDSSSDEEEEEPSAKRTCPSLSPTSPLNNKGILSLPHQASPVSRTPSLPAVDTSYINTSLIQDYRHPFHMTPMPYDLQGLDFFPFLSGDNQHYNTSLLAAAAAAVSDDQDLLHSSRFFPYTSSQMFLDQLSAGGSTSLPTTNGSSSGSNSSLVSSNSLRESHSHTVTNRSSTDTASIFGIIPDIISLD
UniProt O14543: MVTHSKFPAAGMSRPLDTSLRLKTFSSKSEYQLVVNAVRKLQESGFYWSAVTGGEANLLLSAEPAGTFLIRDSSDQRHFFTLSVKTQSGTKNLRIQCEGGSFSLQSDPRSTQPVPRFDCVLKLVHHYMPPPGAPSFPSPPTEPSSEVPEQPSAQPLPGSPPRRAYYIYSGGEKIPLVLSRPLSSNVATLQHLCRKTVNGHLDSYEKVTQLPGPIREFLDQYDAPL
UniProt P29350: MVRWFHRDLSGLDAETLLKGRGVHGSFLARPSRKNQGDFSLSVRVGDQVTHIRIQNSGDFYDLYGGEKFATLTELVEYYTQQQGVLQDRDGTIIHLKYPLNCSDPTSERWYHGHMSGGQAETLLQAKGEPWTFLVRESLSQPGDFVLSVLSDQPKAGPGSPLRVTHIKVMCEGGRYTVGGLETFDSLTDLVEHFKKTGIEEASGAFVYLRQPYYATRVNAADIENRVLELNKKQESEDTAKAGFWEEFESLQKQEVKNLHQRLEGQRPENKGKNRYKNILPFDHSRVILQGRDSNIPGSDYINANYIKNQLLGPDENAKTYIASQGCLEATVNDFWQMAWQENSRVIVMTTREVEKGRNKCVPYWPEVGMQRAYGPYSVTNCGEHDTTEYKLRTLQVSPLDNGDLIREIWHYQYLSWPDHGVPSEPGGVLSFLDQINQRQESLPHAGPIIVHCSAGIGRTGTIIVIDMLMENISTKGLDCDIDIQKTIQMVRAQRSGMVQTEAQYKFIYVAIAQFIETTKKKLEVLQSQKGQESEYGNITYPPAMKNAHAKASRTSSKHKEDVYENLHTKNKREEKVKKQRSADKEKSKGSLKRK

B1: PTP1B (protein, UniProt P18031 1-435)
chain: MEMEKEFEQIDKSGSWAAIYQDIRHEASDFPCRVAKLPKNKNRNRYRDVSPFDHSRIKLHQEDNDYINASLIKMEEAQRSYILTQGPLPNTCGHFWEMVWEQKSRGVVMLNRVMEKGSLKCAQYWPQKEEKEMIFEDTNLKLTLISEDIKSYYTVRQLELENLTTQETREILHFHYTTWPDFGVPESPASFLNFLFKVRESGSLSPEHGPVVVHCSAGIGRSGTFCLADTCLLLMDKRKDPSSVDIKKVLLEMRKFRMGLIQTADQLRFSYLAVIEGAKFIMGDSSVQDQWKELSHEDLEPPPEHIPPPPRPPKRILEPHNGKCREFFPNHQWVKEETQEDKDCPIKEEKGSPLNAAPYGIESMSQDTEVRSRVVGGSLRGAQAASPAKGEPSLPEKDEDHALSYWKPFLVNMCVATVLTAGAYLCYRFLFNSNT

Assays:
[1] = target: RING finger protein 7 (human (endogenous in Caki-1 and ACHN)) (UniProt Q9UBF6); assay: co-IP; Caki-1 cell lysates (RIPA buffer with 1 mM DTT, 100 mmol/l NaCl, 1 mM MgCl2) immunoprecipitated with RNF7 antibodies, protein A/G agarose, 4 °C 2 h; Western blot for JAK/STAT3 signaling proteins (Fig. S2A)
[2] = target: SOCS1 (human (endogenous in Caki-1 and ACHN)) (UniProt O15524); assay: co-IP; reciprocal co-immunoprecipitation in Caki-1 and ACHN cell lysates with control IgG, anti-RNF7 or anti-SOCS1 antibodies, protein A/G agarose, 4 °C 2 h; Western blot (Fig. 5A)
[3] = target: RING finger protein 7 (human (endogenous in Caki-1 and ACHN)) (UniProt Q9UBF6); assay: as above

| Molecule | binding [1] | binding [2] | binding [3] |
| --- | --- | --- | --- |
| PIAS1 (from UniProt O75925 1-651) | no binding |  |  |
| RING finger protein 7 (from UniProt Q9UBF6-1 1-113) |  | binds |  |
| SOCS3 (from UniProt O14543 1-225) | no binding |  |  |
| SOCS1 (from UniProt O15524 1-211) | binds |  | binds |
| SHP-1 (from UniProt P29350 1-595) | no binding |  |  |
| B1 | no binding |  |  |
